Experimental data: article PMC9911399, “Two distinct binding modes provide the RNA-binding protein RbFox with extraordinary sequence specificity”
Positions count from the first letter of the chain named. Some of the results follow.

What was measured:
[1] = target: T1, RBFOX1 RRM RbFoxmut (Fox-RRM*) (Homo sapiens, UniProt Q9NWB1 109-208, R118D;E147R;N151S;E152T); experiment: EMSA; HiTS-Eq, 1 nM pool, 10 min; buffer printed only for the single-RNA assays: 10 mM Tris pH 7.5, 150 mM NaCl, 3.4 mM EDTA, 0.001% NP-40, 30 C; settings: tags: His6 N-terminal (pET28a); label: 5' 32P
T1 sequence: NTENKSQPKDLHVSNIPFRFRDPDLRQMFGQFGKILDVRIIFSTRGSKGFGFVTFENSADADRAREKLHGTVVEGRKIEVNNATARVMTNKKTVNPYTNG
In short: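 Relative association constants, normalised to the cognate motif, were derived by comparing read counts of each RNA species with those of the control reaction. The RNA sequenced was the free fraction, separated by 8% native PAGE after a 10 min equilibration in 50 µL of 1 nM 5′-radiolabelled RNA (7 randomized nucleotides) with increasing concentrations of purified wild-type or mutant RbFox RRM.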

[2] = target: T1, RBFOX1 RRM RbFoxmut (Fox-RRM*); experiment: competition; 10 mM Tris pH 7.5, 150 mM NaCl, 3.4 mM EDTA, 0.001% NP-40, 30 C; settings: tags: His6 N-terminal (pET28a)

B1: GCAUUGA (DNA:RNA)
RNA: GGGAGACCGGAAUUCAGAUUGUCCGCAUUGAUUAAAUCCCGUCGUAGCCACCA
DNA 1: CAATCTGAATTCCGGTCTCCC
DNA 2: TGGTGGCTACGACGGGATT
binding signal [1]: 0.178 KA relative to UGCAUGU

B2: GAUUCAA (DNA:RNA)
RNA: B1 RNA with C26A, A27U, U29C, G30A
DNA 1: CAATCTGAATTCCGGTCTCCC
DNA 2: TGGTGGCTACGACGGGATT
binding signal [1]: 0.0804 KA relative to UGCAUGU

B3: GUCCGAG (DNA:RNA)
RNA: B1 RNA with C26U, A27C, U28C, U29G, G30A, A31G
DNA 1: CAATCTGAATTCCGGTCTCCC
DNA 2: TGGTGGCTACGACGGGATT
binding signal [1]: 0.129 KA relative to UGCAUGU

B4: GCCGAUU (DNA:RNA)
RNA: B1 RNA with A27C, U28G, U29A, G30U, A31U
DNA 1: CAATCTGAATTCCGGTCTCCC
DNA 2: TGGTGGCTACGACGGGATT
binding signal [1]: 0.07 KA relative to UGCAUGU

B5: UAACAGU (DNA:RNA)
RNA: B1 RNA with G25U, C26A, U28C, U29A, A31U
DNA 1: CAATCTGAATTCCGGTCTCCC
DNA 2: TGGTGGCTACGACGGGATT
binding signal [1]: 0.0525 KA relative to UGCAUGU

B6: ACGGAGU (DNA:RNA)
RNA: B1 RNA with G25A, A27G, U28G, U29A, A31U
DNA 1: CAATCTGAATTCCGGTCTCCC
DNA 2: TGGTGGCTACGACGGGATT
binding signal [1]: 0.15 KA relative to UGCAUGU

B7: GUCACUA (DNA:RNA)
RNA: B1 RNA with C26U, A27C, U28A, U29C, G30U
DNA 1: CAATCTGAATTCCGGTCTCCC
DNA 2: TGGTGGCTACGACGGGATT
binding signal [1]: 0.0913 KA relative to UGCAUGU

B8: UGGUCGC (DNA:RNA)
RNA: B1 RNA with G25U, C26G, A27G, U29C, A31C
DNA 1: CAATCTGAATTCCGGTCTCCC
DNA 2: TGGTGGCTACGACGGGATT
binding signal [1]: 0.114 KA relative to UGCAUGU

B9: AUUAAGG (DNA:RNA)
RNA: B1 RNA with G25A, C26U, A27U, U28A, U29A, A31G
DNA 1: CAATCTGAATTCCGGTCTCCC
DNA 2: TGGTGGCTACGACGGGATT
binding signal [1]: 0.0814 KA relative to UGCAUGU

B10: CGGGAAU (DNA:RNA)
RNA: GGGAGACCGGAAUUCAGAUUGUCCCGGGAAUUUAAAUCCCGUCGUAGCCACCA
DNA 1: CAATCTGAATTCCGGTCTCCC
DNA 2: TGGTGGCTACGACGGGATT
binding signal [1]: 0.111 KA relative to UGCAUGU

B11: UCCCCCU (DNA:RNA)
RNA: B10 RNA with C25U, G26C, G27C, G28C, A29C, A30C
DNA 1: CAATCTGAATTCCGGTCTCCC
DNA 2: TGGTGGCTACGACGGGATT
binding signal [1]: 0.0643 KA relative to UGCAUGU

B12: GGGGGAU (DNA:RNA)
RNA: B10 RNA with C25G, A29G
DNA 1: CAATCTGAATTCCGGTCTCCC
DNA 2: TGGTGGCTACGACGGGATT
binding signal [1]: 0.0726 KA relative to UGCAUGU

B13: UAAGUCG (DNA:RNA)
RNA: B1 RNA with G25U, C26A, U28G, G30C, A31G
DNA 1: CAATCTGAATTCCGGTCTCCC
DNA 2: TGGTGGCTACGACGGGATT
binding signal [1]: 0.102 KA relative to UGCAUGU

B14: GGCUCGG (DNA:RNA)
RNA: B1 RNA with C26G, A27C, U29C, A31G
DNA 1: CAATCTGAATTCCGGTCTCCC
DNA 2: TGGTGGCTACGACGGGATT
binding signal [1]: 0.12 KA relative to UGCAUGU

B15: CAGUUCA (DNA:RNA)
RNA: B1 RNA with G25C, C26A, A27G, G30C
DNA 1: CAATCTGAATTCCGGTCTCCC
DNA 2: TGGTGGCTACGACGGGATT
binding signal [1]: 0.106 KA relative to UGCAUGU

B16: UACGUAG (DNA:RNA)
RNA: B10 RNA with C25U, G26A, G27C, A29U, U31G
DNA 1: CAATCTGAATTCCGGTCTCCC
DNA 2: TGGTGGCTACGACGGGATT
binding signal [1]: 0.11 KA relative to UGCAUGU

B17: CACGUUG (DNA:RNA)
RNA: B10 RNA with G26A, G27C, A29U, A30U, U31G
DNA 1: CAATCTGAATTCCGGTCTCCC
DNA 2: TGGTGGCTACGACGGGATT
binding signal [1]: 0.121 KA relative to UGCAUGU

GCAUGGG (ssRNA)
binding signal [2]: 355 nM

B18: CUCGUUA (DNA:RNA)
RNA: B10 RNA with G26U, G27C, A29U, A30U, U31A
DNA 1: CAATCTGAATTCCGGTCTCCC
DNA 2: TGGTGGCTACGACGGGATT
binding signal [1]: 0.13 KA relative to UGCAUGU

B19: CUGUUCC (DNA:RNA)
RNA: B10 RNA with G26U, G28U, A29U, A30C, U31C
DNA 1: CAATCTGAATTCCGGTCTCCC
DNA 2: TGGTGGCTACGACGGGATT
binding signal [1]: 0.12 KA relative to UGCAUGU
